The whole screen tested about 270,000 compounds, of which about 620 (0.23%) were called active. The shares of active, inactive and inconclusive entries below differ from those in the screen. The call rests on the fitted dose curve; in most records, active means well fitted inhibition curve with a large enough effect in the polarisation, with a control signal flat (not every such curve was filed as active); inconclusive means small, poorly fitted or top-dose-only effect, or effect the other way, or a change in a side signal; inactive means no such curve, though single readings can be large or run the other way; the % refers to the polarisation. A potency beside an inconclusive call is a rough fit, not a confirmed value. “Side channel” marks fits to a control or component signal instead of the main read-out.
Target: Menin (Homo sapiens) (UniProt O00255)
Test: qHTS Assay for Inhibitors Targeting the Menin-MLL Interaction in MLL Related Leukemias: Competition With Texas Red Labeled MLL-derived Mutant Peptide; on FP activity change, negative = inhibition: % of control where 0% means no effect
Details: fluorescence polarization; FP activity change, negative = inhibition: at 61.6 µM (top of the series)
Potency means the concentration at half of the fitted maximal effect; tags describe the fitted curve by direction and shape or compound fluorescence and quenching.

Chain of UniProt O00255 (O00255 whole entry, looked up): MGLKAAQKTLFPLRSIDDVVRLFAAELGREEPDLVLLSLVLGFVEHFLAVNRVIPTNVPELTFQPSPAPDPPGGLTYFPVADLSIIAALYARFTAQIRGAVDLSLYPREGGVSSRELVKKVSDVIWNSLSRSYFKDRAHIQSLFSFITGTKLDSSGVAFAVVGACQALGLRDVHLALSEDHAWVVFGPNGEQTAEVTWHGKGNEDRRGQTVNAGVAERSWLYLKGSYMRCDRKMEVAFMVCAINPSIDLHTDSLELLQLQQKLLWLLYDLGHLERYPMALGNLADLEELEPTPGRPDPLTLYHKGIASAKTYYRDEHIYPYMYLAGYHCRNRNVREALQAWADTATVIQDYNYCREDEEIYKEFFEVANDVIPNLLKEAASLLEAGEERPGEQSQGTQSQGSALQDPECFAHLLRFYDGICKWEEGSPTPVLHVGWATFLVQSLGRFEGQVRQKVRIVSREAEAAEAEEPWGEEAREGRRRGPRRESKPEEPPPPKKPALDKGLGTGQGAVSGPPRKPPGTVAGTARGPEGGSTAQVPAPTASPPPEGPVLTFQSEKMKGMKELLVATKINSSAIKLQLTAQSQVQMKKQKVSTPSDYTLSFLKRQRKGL

Potency, inconclusive:
COc1ccc(/C=C/C(=O)Nc2ccc3c(c2)OCCO3)cc1OC 28.2 µM [quencher, side channel, single point]
Cc1c(C(=O)Nc2cccc([N+](=O)[O-])c2)cnn1-c1ccccc1 15.8 µM [quencher, side channel, partial curve]
Cc1ccc2nc(Cl)c(/C=N/NC(=O)c3ccccc3O)cc2c1 39.8 µM [quencher, side channel, single point]
COC(=O)c1cc(C(=O)Nc2ccc(S(=O)(=O)NC(C)(C)C)cc2)cc([N+](=O)[O-])c1 5.62 µM [quencher, side channel, partial curve]
Cc1cc(NC(=O)c2sc(Nc3cccc(C(F)(F)F)c3)nc2N)no1 15.8 µM [quencher, side channel, partial curve]
O=C(NCCN1CCN(C(=O)c2cc3ccccc3oc2=O)CC1)c1cc2ccccc2oc1=O 5.62 µM [inhibitor, single point]
COc1ccc(C(=O)NC(C)C2CC3CCC2C3)c(OC)c1 (configuration not stated) 17.8 µM [inhibitor, partial curve]
CC(=O)Nc1ccc(NC(=S)Nc2ccc(F)cc2)cc1 28.2 µM [inhibitor, partial curve]
O=C(Cn1cnc2scc(-c3ccccc3)c2c1=O)NCc1ccco1 20 µM [quencher, side channel, single point]
COc1ccccc1NC(=S)NNC(=O)c1ccc(Cl)cc1Cl 22.4 µM [quencher, side channel, single point]
CC(C)Oc1ccc(C(=O)Nc2ccc(Cl)c(S(=O)(=O)Nc3ccc(Cl)cc3)c2)cc1 39.8 µM [inhibitor, single point]
CCN(CC)c1ccc(NC(=O)CSc2ccsc2[N+](=O)[O-])c(C)c1 15.8 µM [quencher, side channel, partial curve]
COc1ccccc1N1CCN(C(=O)c2ccc3nc[nH]c3c2)CC1 31.6 µM [inhibitor, single point]
CC1CCC(C(C)C)C(OC(=O)Cn2c(-c3ccc(F)cc3)[n+](C)c3ccccc32)C1 (configuration not stated) 31.6 µM [fluorescent, side channel, partial curve]
CCN1/C(=C\c2ccc3cc(C)ccc3[n+]2CC)Sc2cc(C)c(C)cc21 28.2 µM [fluorescent, side channel, partial curve]
Cc1cc(C(=O)CSc2nnc(Cc3ccccc3)o2)c(C)n1Cc1ccc2c(c1)OCO2 22.4 µM [quencher, side channel, single point]
COc1cc(OC)c(CN2CCC(CO)(CCOc3ccccc3)CC2)c(OC)c1 5.01 µM [fluorescent, side channel, full curve, poor fit]
CC1=NC(=O)C(N=Nc2ccccc2C(=O)O)N1c1ccccc1 (configuration not stated) 25.1 µM [quencher, side channel, partial curve]
CC1(C)COCN1S(=O)(=O)c1ccc(C(=O)Nc2nnc(-c3ccc(Cl)s3)o2)cc1 20 µM [quencher, partial curve]
CCOC(=O)/C(=C\c1ccc(OC)c(OC)c1)C(=O)c1cccnc1 12.6 µM [inhibitor, partial curve]
CCOC(=O)C1CCN(C(=O)CN2C(=O)C(C(C)C)Oc3ccccc32)CC1 (configuration not stated) 28.2 µM [inhibitor, single point]
O=S(=O)(N/N=C\c1cccn1-c1ccccc1)c1ccc2ccccc2c1 35.5 µM [quencher, side channel, single point]
O=C(Nc1cccc(S(=O)(=O)N2CCOCC2)c1)c1c2c(nc3ccccc13)CCC2 25.1 µM [quencher, side channel, partial curve]
O=C(Nc1nc2c(s1)CCCC2)c1ccc(Br)s1 28.2 µM [quencher, side channel, partial curve]
COc1cc(OC)cc(-c2nnc(Sc3ccc(C=O)cc3[N+](=O)[O-])o2)c1 35.5 µM [quencher, side channel, single point]
CCC(=C/c1sc2ccc3ccccc3c2[n+]1C)/C=C1\Sc2ccc3ccccc3c2N1C 0.891 µM [fluorescent, side channel, full curve]
CCCn1c(-c2ccc(F)cc2)nc2c(NCCCCN(CC)CC)nc(C)nc21 35.5 µM [inhibitor, single point]
CC(C)Oc1ccc(/C=N/NC(=O)C(CSCc2ccccc2)NC(=O)c2ccc([N+](=O)[O-])cc2)cc1 (configuration not stated) 28.2 µM [quencher, side channel, single point]
Cc1ccsc1/C=N/Nc1nc2ccccc2s1 12.6 µM [quencher, side channel, partial curve]
O=c1c(O)c(-c2ccc(O)cc2)oc2ccccc12 39.8 µM [inhibitor, single point]

FP activity change, negative = inhibition, inactive:
Cc1ccc(S(=O)(=O)N2CCCCC2)cc1C(=O)NCc1ccccn1 4.19%
Cn1cc(C(=O)[C@@H]2CCc3[nH]cnc3C2)c2ccccc21 3.75%
CN1CC=C2C(C#N)=C(N)C(C#N)(C#N)[C@H](c3ccoc3)[C@H]2C1 -7.33%
CC(=O)OCC1OC(C#Cc2ccc(C)cc2C)C=CC1OC(C)=O (configuration not stated) 0.577% [at 11.7 µM]
CC(=O)Nc1ccc(S(=O)(=O)NNC(=O)c2cc3c4ccccc4n(C)c3s2)cc1 10.9%
COC(=O)c1ccc(OC)c(-c2c(OC)cc(OC)cc2OC)c1 6.18%
Cc1cc(C)n(-c2nc3ccccc3n3cnnc23)n1 -3.98%
